# The full ranking holds about 81,000 sequences; the median of “one-hybrid fitness for binding NBS DNA” is about -0.1, and the highest 2% start at about 0.36. This is one part of the list.
# B1: Caulobacter ParB omega fusion; a variant is named by its letters at X, in order, B8GW30 (parent)
# chain: MESVVVGEPGMSEGRRGLGRGLSALLGEVDAAPAQAPGEQLGGSREAPIEILQRNPDQPRRTFREEDLEDLSNSIREKGVLQPILVRPSPDTAGEYQIVAGERAWRAAQRAGLKTVPIMVRELDDLAVLEIGIIENVQRADLNVLEEALSYKVLMEKFERTQENIAQTIGKSXSHVANXMRLLXLPDEVQSYLVSGELTAXHARAIAAAADPVALAKQIIEGGLSVRETEALARKAPNLSAGKSKGGRPPRVKDTDTQALESDLSSVLGLDVSIDHRGSTGTLTITYATLEQLDDLCNRLTRGI
# Variants of: B1
# Assay: one-hybrid fitness for binding NBS DNA (the Noc-binding site; scaled: cognate 1, non-cognate 0); higher = stronger binding
# Details: with NBS DNA site
# Method in brief: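 Bacterial one-hybrid selection in E. coli USO rpoZ- hisB- pyrF- with a HIS3 reporter carrying the site 19 bp from the promoter, screening Caulobacter ParB libraries with four specificity codons randomised (NNS). Cells grew 48 hours at 37°C on M9-minus-histidine plus 0.1 mM IPTG and 5 mM 3-AT. Plasmids before and after selection were Illumina-sequenced, three replicate libraries pooled, and variants under 10 reads dropped. Fitness is the log change in variant-to-wild-type read ratio, rescaled to cognate 1, non-cognate 0.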
row,Variant,one-hybrid fitness for binding NBS DNA
1,LPRP,≤ 0.2
2,YKNY,≤ 0.2
3,TVTN,≤ 0.2
4,QMGM,≤ 0.2
5,ADSA,≤ 0.2
6,QYDF,≤ 0.2
7,VKQG,≤ 0.2
8,GRLG,≤ 0.2
9,RRWL,≤ 0.2
10,RWNP,≤ 0.2
11,GRSS,≤ 0.2
12,PPLC,≤ 0.2
13,ASYM,≤ 0.2
14,YSTF,≤ 0.2
15,KILW,≤ 0.2
16,LDPR,≤ 0.2
17,RYLT,0.366
18,TFTK,≤ 0.2
19,RINR,0.524
20,VTTF,≤ 0.2
21,VIMF,≤ 0.2
22,RTKY,0.418
23,GIQI,≤ 0.2
24,WHNR,≤ 0.2

row,Variant,one-hybrid fitness for binding NBS DNA
1,HHVS,≤ 0.2
2,TNFD,≤ 0.2
3,GLEK,≤ 0.2
4,LMKT,≤ 0.2
5,CHYT,≤ 0.2
6,CFLV,≤ 0.2
7,PQDN,≤ 0.2
8,SNIG,≤ 0.2
9,FFLR,≤ 0.2
10,THCS,≤ 0.2
11,SVES,≤ 0.2
12,TENV,≤ 0.2
13,KVNP,≤ 0.2
14,YTAT,≤ 0.2
15,DATF,≤ 0.2
16,KPII,≤ 0.2
17,ARIM,≤ 0.2
18,YPAT,≤ 0.2
19,PYFA,≤ 0.2
20,IDTR,≤ 0.2
21,RSVK,≤ 0.2
22,GTQM,≤ 0.2
23,LLEC,≤ 0.2
24,EYKA,≤ 0.2

row,Variant,one-hybrid fitness for binding NBS DNA
1,HHTS,≤ 0.2
2,PCAY,≤ 0.2
3,TEKA,≤ 0.2
4,RLPY,≤ 0.2
5,VFCS,≤ 0.2
6,RVYP,≤ 0.2
7,NCIW,≤ 0.2
8,YSFG,≤ 0.2
9,AETK,≤ 0.2
10,SILN,≤ 0.2
11,WDNM,≤ 0.2
12,MGVE,≤ 0.2
13,HLEV,≤ 0.2
14,YIPA,≤ 0.2
15,FVFG,≤ 0.2
16,KSMC,≤ 0.2
17,VPCG,≤ 0.2
18,FTSY,≤ 0.2
19,GCPI,≤ 0.2
20,PRNV,≤ 0.2
21,AHES,≤ 0.2
22,YYPM,≤ 0.2
23,YKNT,≤ 0.2
24,VAYR,≤ 0.2

row,Variant,one-hybrid fitness for binding NBS DNA
1,THDQ,≤ 0.2
2,KFMP,≤ 0.2
3,IGSF,≤ 0.2
4,YQQC,≤ 0.2
5,VYYS,≤ 0.2
6,GKYM,≤ 0.2
7,SILM,≤ 0.2
8,GVQP,≤ 0.2
9,WLCW,≤ 0.2
10,QLSV,≤ 0.2
11,AEAT,≤ 0.2
12,NLKS,≤ 0.2
13,RIWK,≤ 0.2
14,QSQS,0.36
15,RYIR,0.203
16,DIKR,0.201
17,QDKH,≤ 0.2
18,WFAG,≤ 0.2
19,SCLR,≤ 0.2
20,QMML,≤ 0.2
21,GTQN,≤ 0.2
22,PFMG,≤ 0.2
23,NTQG,≤ 0.2
24,FHSC,≤ 0.2

row,Variant,one-hybrid fitness for binding NBS DNA
1,PRNG,≤ 0.2
2,LATP,≤ 0.2
3,VFEI,≤ 0.2
4,GVKT,≤ 0.2
5,IGDG,≤ 0.2
6,QNNS,0.238
7,HCNW,≤ 0.2
8,AVQY,≤ 0.2
9,QKFV,≤ 0.2
10,LMSA,≤ 0.2
11,TAMS,≤ 0.2
12,ATNP,≤ 0.2
13,LLDM,≤ 0.2
14,KWNY,≤ 0.2
15,QRDY,0.289
16,QMNW,≤ 0.2
17,RWST,≤ 0.2
18,TPPW,≤ 0.2
19,MDDQ,≤ 0.2
20,MRCT,≤ 0.2
21,CAAN,≤ 0.2
22,TCDD,≤ 0.2
23,CRAS,≤ 0.2
24,QTFN,≤ 0.2

row,Variant,one-hybrid fitness for binding NBS DNA
1,RKVE,≤ 0.2
2,RGDR,≤ 0.2
3,HYEM,≤ 0.2
4,LTTI,≤ 0.2
5,QYPA,≤ 0.2
6,MIWC,≤ 0.2
7,TTNF,≤ 0.2
8,CRRT,0.348
9,HAHE,≤ 0.2
10,RAWG,≤ 0.2
11,HIYR,≤ 0.2
12,YPCW,≤ 0.2
13,PTNN,≤ 0.2
14,QAPL,≤ 0.2
15,ATFH,≤ 0.2
16,NIHF,≤ 0.2
17,SQWS,≤ 0.2
18,RNET,0.209
19,LRAT,≤ 0.2
20,HKRW,≤ 0.2
21,QQGM,0.202
22,SQAH,≤ 0.2
23,ADIF,≤ 0.2
24,ESVL,≤ 0.2

row,Variant,one-hybrid fitness for binding NBS DNA
1,RAND,≤ 0.2
2,ATES,≤ 0.2
3,TYIV,≤ 0.2
4,AAGS,≤ 0.2
5,QREE,≤ 0.2
6,RMTR,0.446
7,SMLL,≤ 0.2
8,PTLM,≤ 0.2
9,FNHC,≤ 0.2
10,RYVI,≤ 0.2
11,LQTN,≤ 0.2
12,CVFG,≤ 0.2
13,LSGI,≤ 0.2
14,FAKT,≤ 0.2
15,MLKA,≤ 0.2
16,TSNV,≤ 0.2
17,CLCT,≤ 0.2
18,RTYF,≤ 0.2
19,PGID,≤ 0.2
20,GPPG,≤ 0.2
21,DNHT,≤ 0.2
22,RDNS,≤ 0.2
23,SAEP,≤ 0.2
24,IAVT,≤ 0.2

row,Variant,one-hybrid fitness for binding NBS DNA
1,MKPS,≤ 0.2
2,TMSN,≤ 0.2
3,TLGI,≤ 0.2
4,HDPK,≤ 0.2
5,QSNR,0.62
6,SCNH,≤ 0.2
7,QINK,≤ 0.2
8,YYRC,≤ 0.2
9,TIWS,≤ 0.2
10,FLAD,≤ 0.2
11,CLFK,≤ 0.2
12,LYPC,≤ 0.2
13,PYPT,≤ 0.2
14,LNSI,≤ 0.2
15,VWPR,≤ 0.2
16,QCAT,0.533
17,NELG,≤ 0.2
18,RNKC,≤ 0.2
19,TIEG,≤ 0.2
20,VMVD,≤ 0.2
21,QLRM,0.333
22,WAPT,≤ 0.2
23,ANWM,≤ 0.2
24,DMAD,≤ 0.2

row,Variant,one-hybrid fitness for binding NBS DNA
1,ARLF,≤ 0.2
2,RADQ,≤ 0.2
3,AHMT,≤ 0.2
4,QNPR,≤ 0.2
5,EAMC,≤ 0.2
6,DLNT,≤ 0.2
7,YMLW,≤ 0.2
8,CFRK,≤ 0.2
9,LTGL,≤ 0.2
10,AGIS,≤ 0.2
11,QAIQ,≤ 0.2
12,HIET,≤ 0.2
13,VVRH,≤ 0.2
14,RQCI,≤ 0.2
15,ALFT,≤ 0.2
16,PQLG,≤ 0.2
17,WDTV,≤ 0.2
18,SAWY,≤ 0.2
19,TSWV,≤ 0.2
20,YTYV,≤ 0.2
21,TCPC,≤ 0.2
22,RIFV,≤ 0.2
23,CYMV,≤ 0.2
24,HIVT,≤ 0.2

row,Variant,one-hybrid fitness for binding NBS DNA
1,EGSR,≤ 0.2
2,QCRG,0.451
3,ILPM,≤ 0.2
4,GGDG,≤ 0.2
5,CPSF,≤ 0.2
6,AFTK,≤ 0.2
7,IHNA,≤ 0.2
8,NRPD,≤ 0.2
9,VPIC,≤ 0.2
10,WKCC,≤ 0.2
11,PTPS,≤ 0.2
12,DENS,≤ 0.2
13,LDAM,≤ 0.2
14,SRIV,≤ 0.2
15,TSWY,≤ 0.2
16,DMHC,≤ 0.2
17,KIMR,≤ 0.2
18,QVLS,≤ 0.2
19,MRMT,≤ 0.2
20,AMKY,≤ 0.2
21,VVFF,≤ 0.2
22,HRKH,≤ 0.2
23,DETS,≤ 0.2
24,SEPR,≤ 0.2

row,Variant,one-hybrid fitness for binding NBS DNA
1,DRWH,≤ 0.2
2,LRPR,≤ 0.2
3,MLEM,≤ 0.2
4,QKME,≤ 0.2
5,EVPR,≤ 0.2
6,WKGR,≤ 0.2
7,RIRY,0.259
8,DKNF,≤ 0.2
9,RTKR,0.866
10,TANN,≤ 0.2
11,KLFA,≤ 0.2
12,IPCK,≤ 0.2
13,TGGF,≤ 0.2
14,AKLG,≤ 0.2
15,GPDA,≤ 0.2
16,TLKY,≤ 0.2
17,RLSR,0.43
18,CATR,≤ 0.2
19,SPYN,≤ 0.2
20,LFTV,≤ 0.2
21,VVQL,≤ 0.2
22,DCTY,≤ 0.2
23,AWSR,≤ 0.2
24,YQDC,≤ 0.2

row,Variant,one-hybrid fitness for binding NBS DNA
1,HPVC,≤ 0.2
2,RQQI,≤ 0.2
3,RLKD,≤ 0.2
4,VLCI,≤ 0.2
5,YMAN,≤ 0.2
6,GSRG,≤ 0.2
7,TIFE,≤ 0.2
8,NPDV,≤ 0.2
9,NNFT,≤ 0.2
10,YSKW,≤ 0.2
11,HTLL,≤ 0.2
12,CDNI,≤ 0.2
13,PQTD,≤ 0.2
14,GHTK,≤ 0.2
15,KRGG,≤ 0.2
16,MPAP,≤ 0.2
17,TGVY,≤ 0.2
18,CNMT,≤ 0.2
19,IVRK,≤ 0.2
20,EQTL,≤ 0.2
21,FDSP,≤ 0.2
22,CVYG,≤ 0.2
23,EFMG,≤ 0.2
24,SLRT,≤ 0.2

row,Variant,one-hybrid fitness for binding NBS DNA
1,LDNY,≤ 0.2
2,DCRH,≤ 0.2
3,IYVG,≤ 0.2
4,HSIT,≤ 0.2
5,DMER,≤ 0.2
6,DRLA,≤ 0.2
7,DNQL,≤ 0.2
8,KVHV,≤ 0.2
9,SLDY,≤ 0.2
10,QGHT,≤ 0.2
11,VHLD,≤ 0.2
12,NWVW,≤ 0.2
13,QELC,≤ 0.2
14,SNTW,≤ 0.2
15,RRSF,≤ 0.2
16,GCLP,≤ 0.2
17,DRIS,≤ 0.2
18,PRRA,≤ 0.2

# — a collection of fitness landscapes (doi:10.1016/j.celrep.2020.107928)
